± gives the standard deviation of the averaged measurements. The list shows a part of the results.

Consider 44 sequences from the supplement of paper PMC11417369.

For the experiment, the system named is PfAP2-G AP2 domain (GST-tagged). Briefly: gcPBM binding intensity (ln(normalized median fluorescence intensity)); higher = stronger DNA binding. The procedure, abridged:
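DNA-binding domains from P. falciparum, fused to GST and produced in E. coli, were put on an Agilent 4 × 180k double-stranded probe array for 1 h in 1× PBS holding 1% milk, 0.2 mg/ml BSA, 0.5% salmon testes DNA and 0.03% Triton X-100. Probes were primer-extended, 36 bp long and drawn from intergenic genomic regions, with negative controls included. After Alexa488 anti-GST antibody detection and a 488 nm scan, binding intensity was set as the highest Masliner-normalised natural-log median intensity across replicate spots of either probe orientation.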
Turning to “AACAGATAAAAGGGTACACACATATATACAAGTACA [CACACA_site7959]”, the “gcPBM binding intensity (ln)” value was found to be 11.7 ± 0.83.

For the sequence “TATATAGATATGATAGTGCATTTTTAGAAAACATAA [GTGCAC_site9962]”, the “gcPBM binding intensity (ln)” value is 10 ± 0.14.

“TTATGTAGCTAGCTATAAACTTTTTTTTATTTAAAA [CACACA_negctrl_site1297]”: the “gcPBM binding intensity (ln)” value was 9.7 ± 0.057.

Take “AGAACTTTTAATGGATGTACAGTTATTTTATTATTT [XGTACX_site6226]”: the “gcPBM binding intensity (ln)” value is 11.1 ± 0.32.

On to “ATATAGTAAATTGGTAGTACATAAAATGATTTTATG [XGTACX_site4143]”, for which the “gcPBM binding intensity (ln)” value was 11.6 ± 0.95.

As for “GATATAATTATGTGTACACAATTTTTTTTTTTTTTT [CACACA_site4501]”, the “gcPBM binding intensity (ln)” value worked out at 11.7 ± 0.87.

As for “AAATAAAGGAAATAAAAAGAAACCAATTTCGAATAT [CACACA_negctrl_site953]”, the “gcPBM binding intensity (ln)” value is 9.86 ± 0.18.

For the sequence “ATATGTATGTATAATCGTACAAAATTTGGCGATCTT [XGTACX_site8698]”, the “gcPBM binding intensity (ln)” value is 10.9 ± 0.55.

Regarding “TTTATATGTATTAATTGTACACATATAATGTGTTTT [XGTACX_site3064]”, the “gcPBM binding intensity (ln)” value stood at 11.3 ± 0.78.

In the case of “TTTTTTTTAAAACTATGTACGTAAAAATTGTAGTTT [XGTACX_site2302]”, the “gcPBM binding intensity (ln)” value amounted to 11.7 ± 0.91.

For CGAAAAAGTGATATAGTGCAAAATTTTCATTTCTCT, the “gcPBM binding intensity (ln)” value amounted to 9.84 ± 0.014.

As for “AAAAAAAAAACATACACACATACATACATATATATT [CACACA_site949]”, the “gcPBM binding intensity (ln)” value was found to be 9.78.

For the sequence “ATGAAGAATTTATATTGTACCCATTTTTATGTAAAT [XGTACX_site2528]”, the “gcPBM binding intensity (ln)” value amounted to 11.4 ± 0.93.

With “AAGAATAAGAAGAAGGATCCCCTTCAAAAAAAAAAA [TGCATGCA_negctrl_site525]”, the “gcPBM binding intensity (ln)” value stood at 9.89 ± 0.28.

As for “TTGTTATTATATTACGCATGCATCATTTATTTGCAC [TGCATGCA_site525]”, the “gcPBM binding intensity (ln)” value was found to be 10.1 ± 0.064.

As for “AAAGGGAATTATGGCTGTACGCATTTTATAAATAGC [XGTACX_site5878]”, the “gcPBM binding intensity (ln)” value stood at 11.6 ± 0.89.

In the case of “TGCTGTATATTTTTCTGTACACATTTATATATTCCA [XGTACX_site6244]”, the “gcPBM binding intensity (ln)” value was 11.6 ± 0.87.

For “TTTTTTTTTCTTCTTTTCAAATTTAAGAAATTATAA [CACACA_negctrl_site18]”, the “gcPBM binding intensity (ln)” value was 9.83 ± 0.28.

On to “AATATTTTTGTCGTTAGTACATAAAAAATAATAATA [XGTACX_site3074]”, for which the “gcPBM binding intensity (ln)” value came to 11.2 ± 0.76.

Turning to “CAAACAAACGAACACACACACACACGCAAAAATGAT [CACACA_site7194]”, the “gcPBM binding intensity (ln)” value amounted to 10.3 ± 0.35.

As to “ATAATTAAAATGCTCACACACATAAAAAAAAATTAA [CACACA_site2149]”, the “gcPBM binding intensity (ln)” value stood at 10.1 ± 0.31.

On to “AATAATAAAGTGAACACACACATATAATATATATAT [CACACA_site4143]”, for which the “gcPBM binding intensity (ln)” value was found to be 9.99 ± 0.26.

Turning to “AAAAATTGAATTTTTTTTTTTTTTTTGAGAAGGAAA [CACACA_negctrl_site1196]”, the “gcPBM binding intensity (ln)” value was 9.53 ± 0.057.

Take “ATAATTTTATCATATATATATATATATAAATACTTA [CACACA_negctrl_site743]”: the “gcPBM binding intensity (ln)” value turned out to be 9.78 ± 0.14.

For “ATGCTTTTATGCACACGTACAAAAATATTATATAAT [XGTACX_site5589]”, the “gcPBM binding intensity (ln)” value is 11.1 ± 0.67.

In the case of “ATAAATTAACATTAAAGTACATTTTAATAAATATTA [XGTACX_site3647]”, the “gcPBM binding intensity (ln)” value is 10.9 ± 0.77.

For “ATACATATATATAATACACACATAAATGTAACATTT [CACACA_site3518]”, the “gcPBM binding intensity (ln)” value amounted to 10.06 ± 0.064.

Turning to “ATAGAATCTGGTAGCTGTACGAGTCGTAGAGTGTAG [XGTACX_site2016]”, the “gcPBM binding intensity (ln)” value was found to be 11.4 ± 0.98.

With “ATATATTAAAAGGATTAGGAAAAAATATGATTTATC [TGCATGCA_negctrl_site405]”, the “gcPBM binding intensity (ln)” value was found to be 9.57 ± 0.34.

Consider “AAGTAAAAAAAAAAAAGTACATGTTTATATAAATAT [XGTACX_site4741]”, for which the “gcPBM binding intensity (ln)” value was 11.4 ± 0.73.

As to “ATCCCCATAAAAAATACACACAAATATTTATACATA [CACACA_site1001]”, the “gcPBM binding intensity (ln)” value turned out to be 9.96 ± 0.11.

Take “ATTACGATAGAGAAATGTACATATATATATGTAAGT [XGTACX_site1200]”: the “gcPBM binding intensity (ln)” value was determined as 10.9 ± 0.36.

Consider “TATTTTATAAATTAATGTACATAAATTATATCTACT [XGTACX_site3625]”, for which the “gcPBM binding intensity (ln)” value worked out at 11.2 ± 0.69.

As to “TCATAAATACATTTTGCATGTAAAATATAGAATACA [TGCATGCA_site755]”, the “gcPBM binding intensity (ln)” value is 9.75 ± 0.071.

On to “TCTATAAAATATAAAAGTACGTATCAATAATTAAAA [XGTACX_site8469]”, for which the “gcPBM binding intensity (ln)” value was 11.2 ± 0.49.

Consider “GATCAAAATTATAGAAGTACTTTATATAAATAAAAT [XGTACX_site8161]”, for which the “gcPBM binding intensity (ln)” value is 11.2 ± 0.82.

For the sequence “TATATATATAAGATTGTGCACATTAAAATGATAGAA [GTGCAC_site9621]”, the “gcPBM binding intensity (ln)” value is 10.4 ± 0.29.

Regarding “AATAATGTTTTTATATCACACACAAATATTAAATGA [CACACA_site8074]”, the “gcPBM binding intensity (ln)” value came out at 9.995 ± 0.064.

Turning to “CAAAATAAATAATTTGGTACACATAAAAAAAAAAAA [XGTACX_site8380]”, the “gcPBM binding intensity (ln)” value was 11.1 ± 0.8.

For “TGATAAGAAAAAGACTTTTCCTTCTTACTTTCTATG [CACACA_negctrl_site782]”, the “gcPBM binding intensity (ln)” value was found to be 9.64 ± 0.27.

On to “CCATAAAACTATAATACACACATATAGATTAACATA [CACACA_site7849]”, for which the “gcPBM binding intensity (ln)” value was 10 ± 0.13.

For “AAAATTGGTGAAAATGAAAATATGATTATATGTATA [XGTACX_negctrl_site505]”, the “gcPBM binding intensity (ln)” value was 9.61 ± 0.33.

For the sequence “CCATAAAAAGGTACATGTACAAAAAGCAAAAATATG [XGTACX_site5543]”, the “gcPBM binding intensity (ln)” value turned out to be 11.6 ± 0.91.

As for “ATATTTTTCCAACATCGTACATTATGAGTCAAAATT [XGTACX_site993]”, the “gcPBM binding intensity (ln)” value was 10.9 ± 0.4.
